# In the supplement of paper PMC4604168 (melanoma cell lines):
# Some of the results follow. Repeats are few or missing, and single values can be far off.
# Assays:
# Experiment in all cases: cell count relative to DMSO control; melanoma cells; higher = more viable cells
# Conditions in all cases: library dose: low library concentration; 72 h
# WM115 = system: WM115
# WM1716 = system: WM1716
# WM1745 = system: WM1745
# WM3526 = system: WM3526
# WM3619 = system: WM3619
# WM451Lu = system: WM451Lu
# 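Also: cell number obtained by counting DAPI-stained nuclei in high-throughput microscope images with image analysis software, screen run in 1,536-well plates.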
compound,measurement,setting,value
"COc1cc(Nc2ncc(F)c(Nc3ccc4c(n3)NC(=O)C(C)(C)O4)n2)cc(OC)c1OC [Tamatinib] + Oc1nc(-c2ccc(C(F)(F)F)cc2)nc2c1CSCC2 [XAV939] (first compound 0.4 µM, partner dose 2 µM)",cell count,WM115,81.5%
same,cell count,WM1716,62.9%
same,cell count,WM1745,59.9%
same,cell count,WM3526,99.2%
same,cell count,WM3619,84.1%
same,cell count,WM451Lu,92%
"O=C(Nc1cccc(Cl)c1)Nc1ncc(CCNc2ncnc3ccsc23)s1 + COc1ccc2c(c1)CCC1C2CCC2(C)C(NCCCCCCN3C(=O)C=CC3=O)CCC12 [U73122] (first compound 0.0008 µM, partner dose 0.4 µM)",cell count,WM115,81.2%
same,cell count,WM1716,91%
same,cell count,WM1745,87.6%
same,cell count,WM3526,108%
same,cell count,WM3619,96.5%
same,cell count,WM451Lu,74.2%
"O=C(Nc1cccc(Cl)c1)Nc1ncc(CCNc2ncnc3ccsc23)s1 + CCCCCCCCCCCC1=C(O)C(=O)C=C(O)C1=O [Embelin] (first compound 0.0008 µM, partner dose 1.2 µM)",cell count,WM115,93.3%
same,cell count,WM1716,112%
same,cell count,WM1745,83.8%
same,cell count,WM3526,102%
same,cell count,WM3619,118%
same,cell count,WM451Lu,127%
"Cn1cncc1[C@@](N)(c1ccc(Cl)cc1)c1ccc2c(c1)c(-c1cccc(Cl)c1)cc(=O)n2C [tipifarnib] + O=C1NC(=O)/C(=C/c2ccc(-c3ccc(F)cc3O)o2)S1 [AS252424] (first compound 0.01 µM, partner dose 1 µM)",cell count,WM115,98.2%
same,cell count,WM1716,81.9%
same,cell count,WM1745,111%
same,cell count,WM3526,82.8%
same,cell count,WM3619,93.9%
same,cell count,WM451Lu,108%
"CC1(C)NC(=O)N(c2ccc([N+](=O)[O-])c(C(F)(F)F)c2)C1=O [nilutamide] + Cc1cc([N+](=O)[O-])ccc1NS(=O)(=O)c1cc(Cl)ccc1Cl [FH535] (first compound 1 µM, partner dose 1 µM)",cell count,WM115,94.6%
same,cell count,WM1716,92.6%
same,cell count,WM1745,91.3%
same,cell count,WM3526,105%
same,cell count,WM3619,69.2%
same,cell count,WM451Lu,98.2%
"Cn1cncc1[C@@](N)(c1ccc(Cl)cc1)c1ccc2c(c1)c(-c1cccc(Cl)c1)cc(=O)n2C [tipifarnib] + COc1ccc2c(c1)CCC1C2CCC2(C)C(NCCCCCCN3C(=O)C=CC3=O)CCC12 [U73122] (first compound 0.01 µM, partner dose 0.4 µM)",cell count,WM115,93%
same,cell count,WM1716,80.3%
same,cell count,WM1745,85.1%
same,cell count,WM3526,96.7%
same,cell count,WM3619,84.3%
same,cell count,WM451Lu,97.8%
"O=c1[nH]nc(Sc2ncc([N+](=O)[O-])s2)n1-c1ccc2c(c1)OCCO2 + Cc1cn(-c2cc(NC(=O)c3ccc(C)c(Nc4nccc(-c5cccnc5)n4)c3)cc(C(F)(F)F)c2)cn1 [nilotinib] (first compound 0.2 µM, partner dose 0.2 µM)",cell count,WM115,98.7%
same,cell count,WM1716,94.1%
same,cell count,WM1745,84.6%
same,cell count,WM3526,91.5%
same,cell count,WM3619,83%
same,cell count,WM451Lu,109%
"O=c1[nH]nc(Sc2ncc([N+](=O)[O-])s2)n1-c1ccc2c(c1)OCCO2 + CCCS(=O)(=O)Nc1ccc(F)c(C(=O)c2c[nH]c3ncc(Cl)cc23)c1F [PLX4720] (first compound 0.2 µM, partner dose 0.08 µM)",cell count,WM115,90.7%
same,cell count,WM1716,136%
same,cell count,WM1745,89.1%
same,cell count,WM3526,83.9%
same,cell count,WM3619,96.6%
same,cell count,WM451Lu,103%
"COc1cc(Nc2ncc(F)c(Nc3ccc4c(n3)NC(=O)C(C)(C)O4)n2)cc(OC)c1OC [Tamatinib] + O=C(O)C(=O)Nc1sc2c(c1C(=O)O)CCNC2 [TCS401] (first compound 0.4 µM, partner dose 1.66667 µM)",cell count,WM115,89.1%
same,cell count,WM1716,91.7%
same,cell count,WM1745,56.8%
same,cell count,WM3526,73.1%
same,cell count,WM3619,96.7%
same,cell count,WM451Lu,101%
"O=c1[nH]nc(Sc2ncc([N+](=O)[O-])s2)n1-c1ccc2c(c1)OCCO2 + O=C(O)[C@@H]1[O][Sb](=[O])([O][Sb]2(=[O])[O][C@H]([C@H](O)CO)[C@H](O)[C@H](C(=O)O)[O]2)[O][C@H]([C@H](O)CO)[C@@H]1O [stibogluconate] (first compound 0.2 µM, partner dose 2 µM)",cell count,WM115,108%
same,cell count,WM1716,102%
same,cell count,WM1745,87.1%
same,cell count,WM3526,89.3%
same,cell count,WM3619,85%
same,cell count,WM451Lu,84.2%
"C[C@@H]1CCN(C(=O)CC#N)C[C@@H]1N(C)c1ncnc2[nH]ccc12 + O=C(O)c1ccc(-c2c[nH]c3ncc(-c4ccccc4)cc23)cc1C1CCCC1 [GSK650394] (first compound 1 µM, partner dose 0.16 µM)",cell count,WM115,93.8%
same,cell count,WM1716,96.5%
same,cell count,WM1745,99.8%
same,cell count,WM3526,87.6%
same,cell count,WM3619,84.8%
same,cell count,WM451Lu,103%
"O=c1[nH]nc(Sc2ncc([N+](=O)[O-])s2)n1-c1ccc2c(c1)OCCO2 + COc1ccc(-c2ccc3c(N4CCOCC4)nc(N4C[C@@H](C)O[C@@H](C)C4)nc3n2)cc1CO [KU0063794] (first compound 0.2 µM, partner dose 0.02 µM)",cell count,WM115,108%
same,cell count,WM1716,106%
same,cell count,WM1745,104%
same,cell count,WM3526,108%
same,cell count,WM3619,99.2%
same,cell count,WM451Lu,99.7%
"COc1cc(Nc2ncc(F)c(Nc3ccc4c(n3)NC(=O)C(C)(C)O4)n2)cc(OC)c1OC [Tamatinib] + O=C1NC(=O)/C(=C/c2ccc(-c3ccc(F)cc3O)o2)S1 [AS252424] (first compound 0.4 µM, partner dose 1 µM)",cell count,WM115,88.4%
same,cell count,WM1716,94.9%
same,cell count,WM1745,70.3%
same,cell count,WM3526,71.2%
same,cell count,WM3619,111%
same,cell count,WM451Lu,93.8%
"C[C@@H]1CCN(C(=O)CC#N)C[C@@H]1N(C)c1ncnc2[nH]ccc12 + c1cc(-c2cnn3cc(-c4ccc(OCCN5CCCCC5)cc4)cnc23)ccn1 [Dorsomorphin] (first compound 1 µM, partner dose 0.4 µM)",cell count,WM115,133%
same,cell count,WM1716,118%
same,cell count,WM1745,77.3%
same,cell count,WM3526,99.8%
same,cell count,WM3619,136%
same,cell count,WM451Lu,102%
"O=c1[nH]nc(Sc2ncc([N+](=O)[O-])s2)n1-c1ccc2c(c1)OCCO2 + Nc1nc(F)nc2c1ncn2[C@@H]1O[C@H](CO)[C@@H](O)[C@@H]1O [fludarabine] (first compound 0.2 µM, partner dose 0.2 µM)",cell count,WM115,81%
same,cell count,WM1716,99.8%
same,cell count,WM1745,81.4%
same,cell count,WM3526,39.4%
same,cell count,WM3619,85.6%
same,cell count,WM451Lu,51.8%
"Cn1cncc1[C@@](N)(c1ccc(Cl)cc1)c1ccc2c(c1)c(-c1cccc(Cl)c1)cc(=O)n2C [tipifarnib] + Cn1cc(/C=C2\C(=O)Nc3cccnc32)c2ccccc21 [GW441756] (first compound 0.01 µM, partner dose 0.4 µM)",cell count,WM115,100%
same,cell count,WM1716,87.1%
same,cell count,WM1745,88.9%
same,cell count,WM3526,96.6%
same,cell count,WM3619,93.5%
same,cell count,WM451Lu,83.4%
"Cn1cncc1[C@@](N)(c1ccc(Cl)cc1)c1ccc2c(c1)c(-c1cccc(Cl)c1)cc(=O)n2C [tipifarnib] + Oc1nc(-c2ccc(C(F)(F)F)cc2)nc2c1CSCC2 [XAV939] (first compound 0.01 µM, partner dose 2 µM)",cell count,WM115,100%
same,cell count,WM1716,62.3%
same,cell count,WM1745,80%
same,cell count,WM3526,77.3%
same,cell count,WM3619,79.8%
same,cell count,WM451Lu,108%
"CC1(C)NC(=O)N(c2ccc([N+](=O)[O-])c(C(F)(F)F)c2)C1=O [nilutamide] + c1cc(-c2cnn3cc(-c4ccc(OCCN5CCCCC5)cc4)cnc23)ccn1 [Dorsomorphin] (first compound 1 µM, partner dose 0.4 µM)",cell count,WM115,98.8%
same,cell count,WM1716,95.9%
same,cell count,WM1745,92.4%
same,cell count,WM3526,112%
same,cell count,WM3619,101%
same,cell count,WM451Lu,91.4%
